Experimental data reported in the supplement of paper PMC7826260.
The other results are listed elsewhere or left out. Each Rep nickase domain was tested in vitro on the same pool of single strands (1 h at 37 °C, 3 µM enzyme); the outer parts of the 90-letter strands are left off. A value is the log2 ratio of uncut reads to the pool without enzyme; more negative means more cut, near 0 not cut, and no call is made. The scaling is to total reads; where an enzyme cuts many sequences, the uncut ones exceed 0.

The sequences below were run on T1, Rep nickase domain of porcine circovirus 2 (assay: uncleaved DNA left, log2 of reads against the no-enzyme library (log2 ratio); higher = less cleavage (more negative = more Rep cleavage of the k-mer); sequences stand for … in CTCGTCCG…ACCGGAGA).
T1 sequence (Rep 2-116, printed without the tag): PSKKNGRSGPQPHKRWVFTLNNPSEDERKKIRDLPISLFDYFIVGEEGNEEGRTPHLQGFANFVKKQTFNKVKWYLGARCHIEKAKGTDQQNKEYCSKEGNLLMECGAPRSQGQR
Protocol: (§1)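 A pool of 90-nt single-stranded DNAs with seven random bases just before the constant AC of the nick site (name = the seven bases) was cut by 3 µM recombinant His6-SUMO-tagged Rep nickase domain (300 nM DNA, 50 mM HEPES pH 8.0, 50 mM NaCl, 1 mM MnCl2, 1 h, 37 °C, three replicates). Uncut DNA was amplified and sequenced.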
For GGATCTG, the “uncleaved DNA left (log2)” value was 0.184. TAATATC was tested, and the “uncleaved DNA left (log2)” value was -0.908. GCGTGGC was tested, and the “uncleaved DNA left (log2)” value was 0.165. In the case of CACAAAT, the “uncleaved DNA left (log2)” value is reported as -1.21. With GTCGATT the “uncleaved DNA left (log2)” value was -0.103. In the case of AAACAGG, the “uncleaved DNA left (log2)” value is reported as 0.172. For CAGGTCA, the “uncleaved DNA left (log2)” value was -0.0772. In the case of ACCATCA, the “uncleaved DNA left (log2)” value is reported as 0.17. In the case of CCCGATT, the “uncleaved DNA left (log2)” value is reported as -1.53. CCTCCGA was tested, and the “uncleaved DNA left (log2)” value was 0.0945. With AAGTAAC the “uncleaved DNA left (log2)” value was -1.98. For GAATTGG, the “uncleaved DNA left (log2)” value was 0.0651. CTATACT was tested, and the “uncleaved DNA left (log2)” value was -3.86. CGTACTT was tested, and the “uncleaved DNA left (log2)” value was -0.089. In the case of GCGCAGC, the “uncleaved DNA left (log2)” value is reported as 0.12. In the case of TCACGTC, the “uncleaved DNA left (log2)” value is reported as -0.184. In the case of GATAAGT, the “uncleaved DNA left (log2)” value is reported as -0.34. AACAAAG was tested, and the “uncleaved DNA left (log2)” value was 0.243. For AGTGTCC, the “uncleaved DNA left (log2)” value was 0.0161. With GGTTTGA the “uncleaved DNA left (log2)” value was -0.00116. TTGCAGT was tested, and the “uncleaved DNA left (log2)” value was 0.028. With AGTACTC the “uncleaved DNA left (log2)” value was -0.0938. ATTCAGC was tested, and the “uncleaved DNA left (log2)” value was 0.192. For GCGTTAC, the “uncleaved DNA left (log2)” value was 0.0683. GTCTACG was tested, and the “uncleaved DNA left (log2)” value was 0.0898. ACTAACC was tested, and the “uncleaved DNA left (log2)” value was -0.126. For TAAAGAT, the “uncleaved DNA left (log2)” value was 0.0195. In the case of TTAACGA, the “uncleaved DNA left (log2)” value is reported as 0.208. TGGTCAG was tested, and the “uncleaved DNA left (log2)” value was 0.191. In the case of GTTCTGA, the “uncleaved DNA left (log2)” value is reported as 0.0317. In the case of TCTCCAA, the “uncleaved DNA left (log2)” value is reported as 0.0822. For ACCGCAT, the “uncleaved DNA left (log2)” value was 0.203. For TCCGCGT, the “uncleaved DNA left (log2)” value was 0.133. For CCCAGAC, the “uncleaved DNA left (log2)” value was 0.156. In the case of AGGAATA, the “uncleaved DNA left (log2)” value is reported as 0.08. TCCCGCA was tested, and the “uncleaved DNA left (log2)” value was -0.227. For CGGAAAG, the “uncleaved DNA left (log2)” value was 0.283. For ATCTGCC, the “uncleaved DNA left (log2)” value was 0.0816. For ACCGTAA, the “uncleaved DNA left (log2)” value was 0.119. For ACACAAC, the “uncleaved DNA left (log2)” value was 0.167.

The sequences below were run on T2, Rep nickase domain of tomato golden mosaic virus in the same assay as above.
T2 sequence (Rep 1-124, printed without the tag): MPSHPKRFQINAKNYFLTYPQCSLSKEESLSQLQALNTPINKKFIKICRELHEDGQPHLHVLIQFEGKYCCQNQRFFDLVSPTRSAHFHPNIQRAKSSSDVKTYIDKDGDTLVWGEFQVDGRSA
Protocol: as §1
For GGATCTG, the “uncleaved DNA left (log2)” value was 0.0498. In the case of TAATATC, the “uncleaved DNA left (log2)” value is reported as -3.94. For GCGTGGC, the “uncleaved DNA left (log2)” value was 0.0924. In the case of CACAAAT, the “uncleaved DNA left (log2)” value is reported as 0.0322. For GTCGATT, the “uncleaved DNA left (log2)” value was -0.197. In the case of AAACAGG, the “uncleaved DNA left (log2)” value is reported as 0.101. CAGGTCA was tested, and the “uncleaved DNA left (log2)” value was 0.164. ACCATCA was tested, and the “uncleaved DNA left (log2)” value was 0.113. With CCCGATT the “uncleaved DNA left (log2)” value was -0.145. In the case of CCTCCGA, the “uncleaved DNA left (log2)” value is reported as -0.00108. For AAGTAAC, the “uncleaved DNA left (log2)” value was -0.0201. In the case of GAATTGG, the “uncleaved DNA left (log2)” value is reported as -0.0439. For CTATACT, the “uncleaved DNA left (log2)” value was -2.35. CGTACTT was tested, and the “uncleaved DNA left (log2)” value was 0.0215. With GCGCAGC the “uncleaved DNA left (log2)” value was 0.0275. For TCACGTC, the “uncleaved DNA left (log2)” value was -0.108. GATAAGT was tested, and the “uncleaved DNA left (log2)” value was 0.0376. AACAAAG was tested, and the “uncleaved DNA left (log2)” value was 0.015. For AGTGTCC, the “uncleaved DNA left (log2)” value was 0.07. With GGTTTGA the “uncleaved DNA left (log2)” value was 0.0105. TTGCAGT was tested, and the “uncleaved DNA left (log2)” value was 0.0126. AGTACTC was tested, and the “uncleaved DNA left (log2)” value was -0.0917. In the case of ATTCAGC, the “uncleaved DNA left (log2)” value is reported as 0.0366. GCGTTAC was tested, and the “uncleaved DNA left (log2)” value was 0.0741. GTCTACG was tested, and the “uncleaved DNA left (log2)” value was 0.106. ACTAACC was tested, and the “uncleaved DNA left (log2)” value was 0.0795. For TAAAGAT, the “uncleaved DNA left (log2)” value was -0.319. With TTAACGA the “uncleaved DNA left (log2)” value was 0.165. In the case of TGGTCAG, the “uncleaved DNA left (log2)” value is reported as 0.054. GTTCTGA was tested, and the “uncleaved DNA left (log2)” value was 0.0418. For TCTCCAA, the “uncleaved DNA left (log2)” value was -0.0514. ACCGCAT was tested, and the “uncleaved DNA left (log2)” value was 0.11. TCCGCGT was tested, and the “uncleaved DNA left (log2)” value was -0.0439. In the case of CCCAGAC, the “uncleaved DNA left (log2)” value is reported as 0.0243. In the case of AGGAATA, the “uncleaved DNA left (log2)” value is reported as 0.168. With TCCCGCA the “uncleaved DNA left (log2)” value was -0.165. In the case of CGGAAAG, the “uncleaved DNA left (log2)” value is reported as 0.107. In the case of ATCTGCC, the “uncleaved DNA left (log2)” value is reported as 0.023. In the case of ACCGTAA, the “uncleaved DNA left (log2)” value is reported as 0.0239. For ACACAAC, the “uncleaved DNA left (log2)” value was 0.167.

The sequences below were run on T3, Rep nickase domain of tomato yellow leaf curl virus in the same assay as above.
T3 sequence (Rep 1-136, printed without the tag): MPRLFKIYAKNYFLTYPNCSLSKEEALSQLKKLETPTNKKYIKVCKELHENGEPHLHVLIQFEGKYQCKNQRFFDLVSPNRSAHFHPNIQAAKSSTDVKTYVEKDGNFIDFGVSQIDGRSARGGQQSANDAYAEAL
Protocol: as §1
GGATCTG was tested, and the “uncleaved DNA left (log2)” value was 0.0477. In the case of TAATATC, the “uncleaved DNA left (log2)” value is reported as -0.382. In the case of GCGTGGC, the “uncleaved DNA left (log2)” value is reported as -0.027. In the case of CACAAAT, the “uncleaved DNA left (log2)” value is reported as -0.112. In the case of GTCGATT, the “uncleaved DNA left (log2)” value is reported as 0.0233. In the case of AAACAGG, the “uncleaved DNA left (log2)” value is reported as 0.00264. CAGGTCA was tested, and the “uncleaved DNA left (log2)” value was 0.24. For ACCATCA, the “uncleaved DNA left (log2)” value was 0.0792. CCCGATT was tested, and the “uncleaved DNA left (log2)” value was 0.0329. With CCTCCGA the “uncleaved DNA left (log2)” value was -0.06. In the case of AAGTAAC, the “uncleaved DNA left (log2)” value is reported as -0.0161. In the case of GAATTGG, the “uncleaved DNA left (log2)” value is reported as 0.036. In the case of CTATACT, the “uncleaved DNA left (log2)” value is reported as -0.0385. With CGTACTT the “uncleaved DNA left (log2)” value was 0.0141. With GCGCAGC the “uncleaved DNA left (log2)” value was 0.0454. For TCACGTC, the “uncleaved DNA left (log2)” value was -0.135. For GATAAGT, the “uncleaved DNA left (log2)” value was 0.104. For AACAAAG, the “uncleaved DNA left (log2)” value was 0.0383. AGTGTCC was tested, and the “uncleaved DNA left (log2)” value was 0.0398. For GGTTTGA, the “uncleaved DNA left (log2)” value was 0.0335. In the case of TTGCAGT, the “uncleaved DNA left (log2)” value is reported as -0.0328. For AGTACTC, the “uncleaved DNA left (log2)” value was -0.041. ATTCAGC was tested, and the “uncleaved DNA left (log2)” value was 0.0245. GCGTTAC was tested, and the “uncleaved DNA left (log2)” value was 0.0988. GTCTACG was tested, and the “uncleaved DNA left (log2)” value was 0.0526. With ACTAACC the “uncleaved DNA left (log2)” value was -0.0188. For TAAAGAT, the “uncleaved DNA left (log2)” value was -0.0902. In the case of TTAACGA, the “uncleaved DNA left (log2)” value is reported as 0.152. TGGTCAG was tested, and the “uncleaved DNA left (log2)” value was 0.0986. For GTTCTGA, the “uncleaved DNA left (log2)” value was 0.0529. For TCTCCAA, the “uncleaved DNA left (log2)” value was 0.0125. For ACCGCAT, the “uncleaved DNA left (log2)” value was -0.0791. For TCCGCGT, the “uncleaved DNA left (log2)” value was 0.0645. In the case of CCCAGAC, the “uncleaved DNA left (log2)” value is reported as -0.134. AGGAATA was tested, and the “uncleaved DNA left (log2)” value was 0.127. With TCCCGCA the “uncleaved DNA left (log2)” value was -0.234. For CGGAAAG, the “uncleaved DNA left (log2)” value was 0.246. For ATCTGCC, the “uncleaved DNA left (log2)” value was 0.00156. With ACCGTAA the “uncleaved DNA left (log2)” value was -0.088. ACACAAC was tested, and the “uncleaved DNA left (log2)” value was -0.104.
